Measurements taken from PubChem BioAssay AID686978 (National Center for Advancing Translational Sciences (NCATS), 2013).
The campaign covered roughly 420,000 compounds. About 64,000 (15%) were called active. The shares of active, inactive and inconclusive entries below differ from those in the screen. Calls follow the shape of the dose curve; as a rule, active = well fitted inhibition curve with a large enough effect; inconclusive = small, poorly fitted or top-dose-only effect; inactive = flat fitted curve, though single readings scatter. Potencies of inconclusive entries are left out as doubtful fits.

Assay: qHTS for Inhibitors of human tyrosyl-DNA phosphodiesterase 1 (TDP1): qHTS in cells in absence of CPT; also: nearly all actives have a fitted effect of over 55% in size
Details: DT40 Tdp1-/- hTDP1 cells, no CPT, ATP luminescence, 48 h; activity change, negative = growth inhibition: at 46.2 µM (top of the series) unless noted
How it was run: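 Stably hTDP1-transfected Tdp1-null chicken DT40 cells were treated with library compounds minus camptothecin and grown for at least 48 hr at 37 °C, after which cellular ATP was quantified by luminescence.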
% is scaled to controls: 0 for no effect and ±100 for the full control effect; potency is read from the fitted curve at half-maximal effect; tags tell the direction and shape of the fitted curve.

SMILES	Potency	activity change, negative = growth inhibition
O=C(Cn1ncc(Cl)c(Cl)c1=O)N1CCN(Cc2ccccc2)CC1	active: 3.26 µM	–
CCN1C(=O)c2ccccc2S(=O)(=O)c2ccc(C(=O)NCc3ccc(C)cc3)cc21	inconclusive [inhibitor, single point]	–
CCC(=O)N1CCN(c2ccc(NC(=O)c3ccc4c(c3)OCCO4)cc2)CC1	inactive	–
COc1ccc(CNC(=O)CCn2c(=O)c3cccn3c3ccc(F)cc32)cc1OC	inconclusive [inhibitor, single point]	–
COC(=O)C1=C(C)N(Cc2ccccc2)C(=S)N[C@H]1c1cccc(C(F)(F)F)c1	inconclusive [inhibitor, single point]	–
CCOC(=O)c1sc(NC(=O)/C=C/c2cnn(CC)c2C)c(C(=O)OCC)c1C	active: 20.6 µM	–
CC(=O)c1cccc(S(=O)(=O)N(Cc2cc3cc4c(cc3[nH]c2=O)OCCO4)CC2CCCO2)c1 (stereo unspecified)	inconclusive [inhibitor, partial curve]	–
O=[N+]([O-])c1cc(C(F)(F)F)cc([N+](=O)[O-])c1N1CCCNCC1	inconclusive [inhibitor, single point]	–
COc1ccc(NC(=O)c2ccco2)cc1NC(=O)c1ccccc1	inconclusive [inhibitor, partial curve, poor fit]	–
COc1cccc(-c2cc(C(=O)Nc3cccnc3)no2)c1	active: 13 µM	–
CCOc1ccc(-c2nnc(SCC(=O)NC3CCCCC3)nc2-c2ccc(OCC)c(OC)c2)cc1OC	inactive	–
COc1ccc(O)c(C(=O)c2cnc3c(c2)c(C)nn3C)c1	inconclusive [inhibitor, single point]	–
NC(c1csc(Nc2ccc(C(=O)c3ccccc3)cc2)n1)c1ccccc1Cl (stereo unspecified)	inconclusive [inhibitor, single point]	–
CCS(=O)(=O)c1nc(S(=O)(=O)c2ccc(Cl)cc2)c(NCc2ccc(Cl)cc2)s1	inconclusive [inhibitor, single point]	–
CCOC(=O)c1[nH]c(C)c(CCC(=O)N2CCN(c3ccc(Cl)cc3)CC2)c1C	active: 23.1 µM	–
CC(C)c1cc(CN2C(C)COCC2C)cc(C(C)C)c1O (stereo unspecified)	inconclusive [inhibitor, single point]	–
CCOC(=O)c1[nH]cnc1C(=O)N1CCC(C)CC1	inactive	–
O=C(C#Cc1ccccc1)Nc1ccc(F)cc1	active: 11.6 µM	–

SMILES	Potency	activity change, negative = growth inhibition
COc1ccc(-c2sc(C(=O)c3ccc(Cl)cc3Cl)cc2CC(=O)O)cc1	inconclusive [inhibitor, single point]	–
Cc1ccc(-c2nnn(CC(=O)N(CCCO)C(C(=O)NC3CCCC3)c3ccc(F)cc3)n2)o1 (stereo unspecified)	–	inconclusive: -33.1% [inhibitor]
CCOC(=O)c1sc(NC(NC(=O)c2ccco2)(C(=O)OC)C(F)(F)F)nc1C (stereo unspecified)	inconclusive [inhibitor, full curve]	–
COc1ccccc1OCc1ccc(C(=O)NCc2ccco2)o1	inactive	–
CCc1ccc2nc(N(Cc3cccnc3)C(=O)Cc3ccccc3)sc2c1	inconclusive [inhibitor, single point]	–
Clc1cccc(Cl)c1C1Nc2cccc3cccc(c23)N1	inconclusive [inhibitor, partial curve, poor fit]	–
Cc1ccc(NC(=O)CSc2nccn2Cc2ccco2)c(C)c1	inactive	–
CCOc1ccc(C2C(C(C)=O)=C(O)C(=O)N2CCc2c[nH]c3ccccc23)cc1 (stereo unspecified)	inactive	–
O=C(C1CC1)N1CCN=C1SCc1ccc(Cl)cc1	inconclusive [inhibitor, single point]	–
CC1(C)NC(=O)N(CC(O)CN2C(=O)NC(C)(C)C2=O)C1=O	inactive	–
CC(C)C[C@@]12C(=O)N(c3cccc(Cl)c3)C(=O)N1[C@H](c1ccc(Br)cc1)[C@@H]1C(=O)N(C(C)(C)C)C(=O)[C@@H]12	inconclusive [inhibitor, partial curve]	–
CCC(C(=O)NCc1ccccc1Cl)n1c(=O)c2cccn2c2ccccc21 (stereo unspecified)	inconclusive [inhibitor, single point]	–
CCOC(=O)C1CCCN(C(=O)c2cc(F)cc(F)c2)CC1 (stereo unspecified)	inactive	–
CN(Cc1ccc(OC(F)F)cc1)C(=O)c1cccc(S(=O)(=O)N2CCN(c3ccccc3)CC2)c1	active: 2.91 µM	–
Cc1cc2c(OCC(CNC(C)(C)C)OC(=O)c3ccccc3)cccc2[nH]1 (stereo unspecified)	inconclusive [inhibitor, single point]	–
COc1ccc(CCNS(=O)(=O)c2cccc(C)c2)cc1OC	inactive	–
O=C(O)CC1(CC(=O)Nc2ccc3c(c2)OCCCO3)CCCCC1	inactive	–
C#CCNCCS(=O)(=O)N(Cc1ccc(Br)cc1)[C@@H](CC(C)C)C(=O)O	inactive	–
